According to PMC4852768:
Positions count from the first letter of the chain named. These are yes or no findings as the source states them, for the method shown. In cells and extracts the contact can be indirect. Some binding calls cover weakened binding; strength is not graded here. For some of these results: Sequences can lack the tags named with a protein.

Amino acid sequences for entries named in this document (tags omitted).
UniProt P35385: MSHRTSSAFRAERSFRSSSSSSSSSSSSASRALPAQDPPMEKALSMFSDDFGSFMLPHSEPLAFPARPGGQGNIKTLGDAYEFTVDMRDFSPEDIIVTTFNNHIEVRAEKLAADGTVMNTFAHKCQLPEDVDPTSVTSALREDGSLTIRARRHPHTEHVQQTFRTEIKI

T1: HA-FLNC-C, FLNC C-terminal wild type (Ig-like domains 19-24, G2133-P2726) (UniProt Q8VHX6)
T1 sequence: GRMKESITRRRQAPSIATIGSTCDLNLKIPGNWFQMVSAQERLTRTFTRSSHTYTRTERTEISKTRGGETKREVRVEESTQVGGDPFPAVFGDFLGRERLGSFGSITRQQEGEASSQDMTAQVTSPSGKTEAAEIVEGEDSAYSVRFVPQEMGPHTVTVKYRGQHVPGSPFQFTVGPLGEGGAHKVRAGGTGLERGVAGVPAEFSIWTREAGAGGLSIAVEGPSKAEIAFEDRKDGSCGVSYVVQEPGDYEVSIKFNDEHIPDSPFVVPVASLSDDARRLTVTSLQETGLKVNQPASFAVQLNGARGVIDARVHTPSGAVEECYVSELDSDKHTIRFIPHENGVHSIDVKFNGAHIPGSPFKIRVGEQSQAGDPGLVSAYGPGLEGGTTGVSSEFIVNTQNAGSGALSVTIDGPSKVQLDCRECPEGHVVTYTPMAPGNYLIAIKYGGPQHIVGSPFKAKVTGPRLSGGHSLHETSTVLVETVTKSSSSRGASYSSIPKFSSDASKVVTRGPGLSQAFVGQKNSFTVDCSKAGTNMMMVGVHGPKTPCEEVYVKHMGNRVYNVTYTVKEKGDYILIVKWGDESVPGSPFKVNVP

T2: HA-W2711X, FLNC-C truncated within Ig-like domain 24 (G2133-W2711) (UniProt Q8VHX6)
T2 sequence: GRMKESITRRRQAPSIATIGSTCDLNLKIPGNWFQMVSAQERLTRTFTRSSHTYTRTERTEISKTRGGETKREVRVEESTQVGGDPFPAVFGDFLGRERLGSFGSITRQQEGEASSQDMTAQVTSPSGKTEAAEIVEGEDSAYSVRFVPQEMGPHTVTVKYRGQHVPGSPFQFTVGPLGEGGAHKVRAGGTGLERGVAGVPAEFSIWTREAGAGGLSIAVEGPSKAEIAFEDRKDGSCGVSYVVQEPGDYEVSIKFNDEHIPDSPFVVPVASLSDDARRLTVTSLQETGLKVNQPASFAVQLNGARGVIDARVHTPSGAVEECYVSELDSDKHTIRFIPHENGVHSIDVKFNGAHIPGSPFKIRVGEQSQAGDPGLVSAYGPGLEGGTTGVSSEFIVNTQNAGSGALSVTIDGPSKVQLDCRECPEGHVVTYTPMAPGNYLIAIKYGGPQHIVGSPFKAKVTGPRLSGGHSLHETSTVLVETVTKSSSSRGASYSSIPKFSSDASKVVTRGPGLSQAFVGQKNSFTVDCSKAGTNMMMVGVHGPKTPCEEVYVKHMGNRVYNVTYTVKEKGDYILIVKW

T3: HA-M2670D, FLNC-C with the point mutation M2670D (G2133-P2726) (UniProt Q8VHX6)
T3 sequence: T1 sequence with M538D

B1: Myc-FLNC-C, FLNC C-terminal wild type (Ig-like domains 19-24, G2133-P2726) (domain or fragment, UniProt Q8VHX6 2133-2726)
chain: T1 sequence

Tests used:
[1] = biological target: T1, HA-FLNC-C, FLNC C-terminal wild type (Ig-like domains 19-24, G2133-P2726); assay: co-IP; HEK293T cells transfected with HA-FLNC constructs, Myc-FLNC-C and HSPB7, lysed in RIPA buffer after 24 h, precipitated with anti-HA affinity gel, western blot
[2] = biological target: T2, HA-W2711X, FLNC-C truncated within Ig-like domain 24 (G2133-W2711); assay: as above
[3] = biological target: T3, HA-M2670D, FLNC-C with the point mutation M2670D (G2133-P2726); assay: as above
[4] = biological target: HSPB7 with knocked-in C-terminal FLAG tag (Flox allele) (mouse (endogenous in diaphragm muscle)) (UniProt P35385); assay: co-IP; diaphragm extracts (500 ug) of Hspb7 Flox/Flox (FLAG knock-in) and wild-type mice incubated with anti-FLAG M2 affinity gel at 4°C overnight, washed with lysis buffer, western blot

Row | Molecule | binding [1] | binding [2] | binding [3] | binding [4]
1 | HSPB7, full-length mouse cDNA in pcDNA3 (from UniProt P35385 1-169) | binds | no binding | no binding | 
2 | filamin C, endogenous in mouse diaphragm muscle (from UniProt Q8VHX6 1-2726) |  |  |  | binds
3 | B1 | binds | no binding | no binding | 
